Measurements from the supplement of paper PMC11348887.
Where a name gives a salt, the structure may show the parent alone. Some of the results follow. Cut-off read from the data, not from the text of the source: active = -2 or less and inactive = the rest. Single values are uncertain, as repeats are few or missing.

tested on: hPSC-derived cortical neurons (WA09); test: nuclei number (viability) z-score; higher = more surviving cells; settings: 5 µM; treatment: days 7-14 after plating, readout day 21
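Note: nuclei counted from DAPI counterstain by automated high-content image analysis, four fields per well at ×20 in 384-well plates, with sequential b-score then z-score normalization.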

Compound	nuclei number (z-score)
O=C(O)CCCC[C@@H]1SC[C@@H]2NC(=O)N[C@@H]21 [Biotin (Vitamin B7)]	inactive: 0.275
CN1CCN(c2cc3c(cc2F)c(=O)c(C(=O)O)cn3-c2ccc(F)cc2)CC1 [Difloxacin HCl]	inactive: 0.538
Cn1c(Nc2ccc(C(F)(F)F)cc2)nc2cc(Oc3ccnc(-c4ncc(C(F)(F)F)[nH]4)c3)ccc21	active: -2.14
COC(=O)C1=C(C)NC(C)=C(C(=O)OC(C)C)C1c1cccc2nonc12 (stereo not drawn) [Isradipine]	inactive: -0.634
CC(=O)SCC(Cc1ccccc1)C(=O)NCC(=O)OCc1ccccc1 (stereo not drawn) [Racecadotril]	inactive: 0.113
N[C@@H](CSCCCO)C(=O)O [Fudosteine]	inactive: -0.26
C[C@H](CCC(=O)O)[C@H]1CC[C@H]2[C@@H]3CC[C@@H]4C[C@H](O)CC[C@]4(C)[C@H]3CC[C@]12C [Lithocholic acid]	inactive: -0.476
S=C(NCc1ccc2c(c1)OCO2)N1CCN(c2ncnc3c2oc2ccccc23)CC1 [Amuvatinib (MP-470)]	inactive: -0.176
OCCN1C[C@H](O)[C@@H](O)[C@H](O)[C@H]1CO [Miglitol]	inactive: -0.458
CC1(C)CCC2=C(O1)c1ccccc1C(=O)C2=O [Beta-Lapachone]	active: -4.8
CC(=O)OCC[N+](C)(C)C [Acetylcholine Chloride]	inactive: -0.458
C#C[C@]1(O)CC[C@H]2[C@@H]3CCC4=CCCC[C@@H]4[C@H]3C(=C)C[C@@]21CC [Desogestrel]	inactive: -0.39
CC(C)C(=O)Nc1ccc([N+](=O)[O-])c(C(F)(F)F)c1 [Flutamide]	inactive: 0.695
CC(=O)Oc1cc2c(s1)CCN(C(C(=O)C1CC1)c1ccccc1F)C2 (stereo not drawn) [Prasugrel Hydrochloride]	inactive: 0.675
CC(=O)Oc1cc2c(s1)CCN(C(C(=O)C1CC1)c1ccccc1F)C2 (stereo not drawn) [Prasugrel]	inactive: 1.85
Cn1cnc([N+](=O)[O-])c1Sc1ncnc2[nH]cnc12 [Azathioprine]	inactive: 0.0169
CCCS(=O)(=O)Nc1ccc(F)c(C(=O)c2c[nH]c3ncc(-c4ccc(Cl)cc4)cc23)c1F [Vemurafenib (PLX4032_ RG7204)]	inactive: 1.02
O=C(Nc1c(Cl)cncc1Cl)c1ccc(OC(F)F)c(OCC2CC2)c1 [Roflumilast]	inactive: 3.32
CCOC(=O)OC(C)OC1=C(C(=O)Nc2ccccn2)N(C)S(=O)(=O)c2ccccc21 (stereo not drawn) [Ampiroxicam]	inactive: 0.916
Cc1cccc(-c2[nH]c(CNc3ccccc3F)nc2-c2ccc3ncnn3c2)n1	inactive: 10.8
O=C(O)c1cc(-c2ccc(F)cc2F)ccc1O [Diflunisal]	inactive: -0.124
CCCCNC(=O)NS(=O)(=O)c1ccc(C)cc1 [Tolbutamide]	inactive: 0.4

Compound	nuclei number (z-score)
C[C@@H]1O[C@@H](O[C@H]2[C@H](Oc3cc(O)c(C(=O)CCc4ccc(O)cc4)c(O)c3)O[C@H](CO)[C@@H](O)[C@@H]2O)[C@H](O)[C@H](O)[C@H]1O [Naringin Dihydrochalcone]	inactive: 1.48
CCn1cc(C(=O)O)c(=O)c2cnc(N3CCCC3)nc21 [Piromidic Acid]	inactive: 3.8
O=S(=O)(O)CCS [Mesna]	inactive: -0.309
CCOc1ccccc1OCCN[C@H](C)Cc1ccc(OC)c(S(N)(=O)=O)c1 [Tamsulosin hydrochloride]	inactive: 2.35
C[C@@H](CN1CC(=O)NC(=O)C1)N1CC(=O)NC(=O)C1 [Dexrazoxane HCl (ICRF-187_ ADR-529)]	inactive: 0.326
N=C(N)NCCC[C@H](N)C(=O)O [L-Arginine HCl (L-Arg)]	inactive: 0.0774
Cc1nc2n(c(=O)c1CCN1CCC(c3noc4cc(F)ccc34)CC1)CCCC2 [Risperidone]	inactive: -0.649
CNCCC(Oc1ccc(C(F)(F)F)cc1)c1ccccc1 (stereo not drawn) [Fluoxetine HCl]	inactive: -0.665
Cn1nccc1Nc1nccc(-c2ccn([C@H](CO)c3ccc(Cl)c(F)c3)c(=O)c2)n1	active: -5.47
OCc1cc(C(O)CNCCCCCCOCCCCc2ccccc2)ccc1O (stereo not drawn) [Salmeterol Xinafoate]	inactive: -0.763
CC(=O)OCC(=O)[C@@]12N=C(C)O[C@@H]1C[C@H]1[C@@H]3CCC4=CC(=O)C=C[C@]4(C)[C@H]3[C@@H](O)C[C@@]12C [Deflazacort]	inactive: -0.651
CN(C)Cc1cccc(N/C(=C2\C(=O)Nc3cc(C(N)=O)ccc32)c2ccccc2)c1	inactive: -0.0347
CCN1CC(CCN2CCOCC2)C(c2ccccc2)(c2ccccc2)C1=O (stereo not drawn) [Doxapram HCl]	inactive: -0.913
CCC(=O)O[C@]1(C(=O)CCl)[C@@H](C)C[C@H]2[C@@H]3C[C@H](F)C4=CC(=O)C=C[C@]4(C)[C@@]3(F)[C@@H](O)C[C@@]21C [Halobetasol Propionate]	inactive: 0.679
CC(=O)N[C@H]1[C@H]([C@H](O)[C@H](O)CO)OC(C(=O)O)=C[C@@H]1NC(=N)N [Zanamivir]	inactive: -0.949
COc1cc(Nc2nc3ccccc3nc2NS(=O)(=O)c2ccc(NC(=O)c3ccc(C)c(OC)c3)cc2)cc(OC)c1	inactive: 0.0939
CCC1=C(C)CN(C(=O)NCCc2ccc(S(=O)(=O)NC(=O)N[C@H]3CC[C@H](C)CC3)cc2)C1=O [Glimepiride]	inactive: 0.766
C[C@@]12C[C@@]3(O)O[C@@H](O1)[C@]1(COC(=O)c4ccccc4)[C@H]3C[C@@]12O[C@@H]1O[C@H](CO)[C@@H](O)[C@H](O)[C@H]1O [Paeoniflorin]	inactive: 1.29
Cc1coc2c1C(=O)C(=O)c1c-2ccc2c(C)cccc12 [Tanshinone I]	inactive: 7.96
CCC(C)SSc1ncc[nH]1 (stereo not drawn)	inactive: 0.331
CCOC(=O)c1ccc(NC(=O)O[C@H]2[C@H](OC(=O)Nc3ccc4c(c3)OCO4)[C@@H](OC(=O)Nc3ccc4c(c3)OCO4)[C@@H](OC)O[C@@H]2CO)cc1	inactive: 0.514
